Laboratory results published in PubChem BioAssay AID588591 (National Center for Advancing Translational Sciences (NCATS), 2011).
About 4,700 (1.2%) of roughly 390,000 compounds were called active. The inconclusive results got no clear call from the source; some entries with a clear call stand among them for comparison. The call rests on the fitted dose curve; in most records, active means well fitted inhibition curve with a large enough effect; inconclusive means small, poorly fitted or top-dose-only effect, or another doubt; inactive means no such curve, though single readings can be large or run the other way. Where the call is inconclusive, the potency comes from a doubtful curve fit. The source holds several records for some structures; these can differ, active in one and inactive in another.

Target: DNA polymerase eta (Homo sapiens) (UniProt Q9Y253)
Sequence of UniProt Q9Y253 (Q9Y253 whole entry, looked up): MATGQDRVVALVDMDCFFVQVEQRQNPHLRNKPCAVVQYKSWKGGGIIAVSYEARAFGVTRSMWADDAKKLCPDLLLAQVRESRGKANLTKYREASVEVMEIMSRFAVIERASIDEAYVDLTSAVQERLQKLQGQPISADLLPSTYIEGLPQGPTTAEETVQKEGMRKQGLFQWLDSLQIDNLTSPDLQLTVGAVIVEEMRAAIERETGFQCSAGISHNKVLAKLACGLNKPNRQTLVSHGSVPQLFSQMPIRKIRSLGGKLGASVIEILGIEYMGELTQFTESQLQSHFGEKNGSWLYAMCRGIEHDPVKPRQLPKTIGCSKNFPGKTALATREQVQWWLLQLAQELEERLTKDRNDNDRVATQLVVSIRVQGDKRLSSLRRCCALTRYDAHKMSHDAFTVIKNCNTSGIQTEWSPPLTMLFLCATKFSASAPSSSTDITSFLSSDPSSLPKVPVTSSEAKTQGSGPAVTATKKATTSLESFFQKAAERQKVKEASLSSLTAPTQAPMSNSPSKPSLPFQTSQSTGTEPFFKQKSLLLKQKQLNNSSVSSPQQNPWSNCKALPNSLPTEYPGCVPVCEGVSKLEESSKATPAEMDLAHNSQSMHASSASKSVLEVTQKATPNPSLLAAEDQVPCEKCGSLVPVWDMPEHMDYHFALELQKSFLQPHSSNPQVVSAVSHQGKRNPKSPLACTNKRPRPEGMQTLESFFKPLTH
Assay: qHTS for Inhibitors of Polymerase Eta
Conditions: recombinant Pol eta, fluorescent DNA replication assay; series mostly up to 114 µM; activity change, negative = inhibition: at the top concentration
Outline: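 Fluorescent replication assay: 50 nM final substrate added after a 15 min room-temperature compound preincubation with 10 nM enzyme. Signal taken at 0 min and again at 10 min.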
On the % scale 0 is the no-effect control and ±100 the full control effect; potency means the concentration at half of the fitted maximal effect; tags describe the fitted curve by direction and shape.

| Compound | Potency | activity change, negative = inhibition |
| --- | --- | --- |
| CCCCOC(=O)c1ccc(N=Nc2c(C)c(C#N)c(O)[nH]c2=O)cc1 | inconclusive: 50.1 µM [inhibitor, partial curve] | – |
| Cc1ccc([C@H]2C(C(=O)O)=CC[C@@H](c3ccc(C(C)C)cc3)N2S(=O)(=O)c2ccc(C)cc2)cc1 | inconclusive: 89.1 µM [inhibitor, single point] | – |
| CCn1cc(C(=O)N(C)c2ccc(C(C)C)cc2)c2cc(OC)c(OC)cc2c1=O | – | inactive: -12.5% |
| Cc1cc(Cl)n2c(nc3cc(F)c(F)cc32)c1C#N | active: 56.2 µM | – |
| NS(=O)(=O)c1ccc(NC(=O)COc2cccc3ccccc23)cc1 | active: 79.4 µM | – |
| COc1ccc(Nc2nc3ccccc3c(=O)[nH]2)cc1 | inconclusive: 79.4 µM [inhibitor, partial curve] | – |
| CCOc1ccc(-c2nnc(-c3ccc(OC)cc3)o2)cc1 | inconclusive: 31.6 µM [inhibitor, partial curve, poor fit] | – |
| Cc1ccc(NC(=O)c2nc(S(=O)(=O)Cc3ccccc3C)ncc2Cl)cc1C | inconclusive: 28.2 µM [inhibitor, partial curve, poor fit] | – |
| Cc1c(Cl)cnc(NC(=O)COC(=O)c2ccncc2)c1Cl | active: 25.1 µM | – |
| OCC1(Cc2cccc(Cl)c2)CCCN(Cc2ccc(F)c(F)c2)C1 (centres undefined) | inconclusive: 100 µM [inhibitor, partial curve, poor fit] | – |
| C=CCNC(=O)c1c(N)n(-c2cccc(S(N)(=O)=O)c2)c2nc3ccccc3nc12 | inconclusive: 14.1 µM [inhibitor, partial curve, poor fit] | – |
| COc1cc(C(=O)ONC(=O)c2ccc(OC(F)F)cc2)cc(OC)c1OC | active: 79.4 µM | – |
| O=C(CSC(=S)N1CCCC1)c1cc(Br)cc(Br)c1O | inconclusive: 89.1 µM [inhibitor, single point] | – |
| COc1ccc(C(=O)n2nc(-c3ccco3)nc2SC)cc1OC | inconclusive: 31.6 µM [inhibitor, partial curve, poor fit] | – |
| CCn1c(=N)n(CC(=O)c2ccc(Br)s2)c2ccccc21 | inconclusive: 100 µM [inhibitor, partial curve, poor fit] | – |
| Cc1[nH]n(-c2ccccc2)c(=O)c1C(=O)c1ccccc1 | inconclusive: 100 µM [inhibitor, partial curve, poor fit] | – |
| CCOc1ccccc1COC(=O)c1cccc(-n2cnnn2)c1 | – | inactive: -11.9% |
| COc1ccc(C)cc1NC(=O)CSc1nc(SC)ns1 | inconclusive: 89.1 µM [inhibitor, partial curve, poor fit] | – |
| Cc1ccc(S(=O)(=O)NCC(=O)N(CC(=O)NCc2ccco2)Cc2ccco2)cc1 | active: 56.2 µM | – |
| Cc1onc(-c2ccccc2)c1-c1csc(COc2ccccc2)n1 | – | inactive: -9.02% |
| N#Cc1ccsc1NC(=O)CSc1ncnc2ccccc12 | inconclusive: 8.91 µM [inhibitor, full curve, poor fit] | – |
| CCOC(=O)CNS(=O)(=O)c1cc(-c2nn(C)c(=O)c3ccccc23)ccc1C | inconclusive: 22.4 µM [inhibitor, full curve, poor fit] | – |
| N#Cc1nc(-c2ccc(F)cc2)oc1N1CCN(C(=O)c2ccco2)CC1 | inconclusive: 20 µM [inhibitor, full curve] | – |

| Compound | Potency | activity change, negative = inhibition |
| --- | --- | --- |
| Cc1ccc(-n2c(CCc3ccccc3)nnc2SCC(=O)NCc2ccccc2)cc1C | inconclusive: 79.4 µM [inhibitor, partial curve, poor fit] | – |
| Cc1ccc(S(=O)(=O)Nc2c(O)ccc3ccccc23)cc1 | – | inactive: -6.03% |
| O=C1c2c(O)cc(O)cc2OC(c2ccc(O)c(O)c2)C1O (centres undefined) | active: 5.62 µM | – |
| O=C(Nc1ncc(Cc2ccccc2)s1)C1COc2ccccc2O1 (centres undefined) | – | inactive: 3.12% |
| O=C(NNC(=O)C1CC2CCC1C2)c1sc2ccccc2c1Cl (centres undefined) | inconclusive: 31.6 µM [inhibitor, partial curve, poor fit] | – |
| C#CCOc1ccc(C2CC(=O)Nc3c2c(C)nn3-c2nc(C)cc(C)n2)cc1 (centres undefined) | inconclusive: 89.1 µM [inhibitor, partial curve, poor fit] | – |
| COc1ccc(CNC(=O)C2CCCN(S(=O)(=O)c3ccc(-n4cnnn4)cc3)C2)cc1 (centres undefined) | inconclusive: 79.4 µM [inhibitor, partial curve, poor fit] | – |
| CCOC(=O)/C=C/C(=O)Nc1ccc(S(=O)(=O)Nc2nccs2)cc1 | active: 44.7 µM | – |
| O=[N+]([O-])c1ccccc1NC(=S)N/N=C/c1ccc(O)c(O)c1 | active: 3.55 µM | – |
| O=C1C=C(O)c2cccc(O)c2C1=O | active: 35.5 µM | – |
| CCS(=O)(=O)C1=NN2C(=N)/C(=C\c3ccc(OS(=O)(=O)c4ccccc4)cc3)C(=O)N=C2S1 | active: 44.7 µM | – |
| NC(=O)COc1ccccc1/C=C1/SC(=O)N(CC(=O)N2CCc3ccccc3C2)C1=O | inconclusive: 31.6 µM [inhibitor, partial curve, poor fit] | – |
| Cc1nc2ccccc2n2c(O)c(CC(=O)O)cc12 | active: 79.4 µM | – |
| CN(C)c1ccc(/C=C(\C#N)C(=O)Nc2nc3c(s2)CCN(Cc2ccccc2)C3)cc1 | inconclusive: 56.2 µM [inhibitor, partial curve, poor fit] | – |
| O=C(Nc1ccc2c(c1)OCO2)c1cccc2c1C(=O)N(Cc1cccnc1)C2 | inconclusive: 17.8 µM [inhibitor, partial curve] | – |
| CN(Cc1ccccc1)C(=O)CCC1CCN(C(=O)CCC(F)(F)F)CC1 | inconclusive: 3.16 µM [inhibitor, full curve, poor fit] | – |
| Nc1ccc(S(=O)(=O)Nc2ccc(Cl)nn2)cc1 | inconclusive: 35.5 µM [inhibitor, full curve] | – |
| C=Cc1ccc(Cn2c(C)c(CNCCc3ccccc3C)c(C(=O)O)c2C)cc1 | – | inactive: -2.31% |
| CCOc1cccc2cc(C(=O)OCC(=O)Nc3c(C)cccc3CC)c(=O)oc12 | inconclusive: 17.8 µM [inhibitor, full curve, poor fit] | – |
| COc1ccc(C2CC(=O)N3CN(c4ccccc4F)CSC3=C2C#N)cc1OC (centres undefined) | – | inactive: -5.28% |
| CC(=O)Nc1cc(C(=O)CSc2nnc(C3CC3)n2C2CC2)ccc1O | active: 11.2 µM | – |
| CC(=O)OCC1=C(C(=O)O)N2C(=O)C(NC(=O)CCn3nc(C)c(Cl)c3C)C2SC1 (centres undefined) | inconclusive: 14.1 µM [inhibitor, full curve, poor fit] | – |
| O=C(Nc1cccc(Oc2ccc(C(=O)O)c(C(=O)O)c2)c1)c1ccc(-c2ccccc2)cc1 | active: 22.4 µM | – |

| Compound | Potency | activity change, negative = inhibition |
| --- | --- | --- |
| O=C(CSc1c(Cl)cccc1Cl)N1CCC(c2nc3ccccc3s2)CC1 | inconclusive: 28.2 µM [inhibitor, single point] | – |
| COC(=O)C1=C(C)NC(C)=C(C(=O)OC)C1C(=O)OCc1nnc(-c2ccccc2Cl)o1 | inconclusive: 2.82 µM [inhibitor, partial curve, poor fit] | – |
| O=C(O)CCCNc1cc(N2CCN(C3CCCCC3)CC2)c2noc3c2c1C(=O)c1ccccc1-3 | – | inactive: 2.75% |
| Cc1ccc(-c2nnc(-c3cccc(NC(=O)c4cccs4)c3)o2)cc1 | inconclusive: 28.2 µM [inhibitor, single point] | – |
| O=C(CCc1nnc2ccc(NCc3ccco3)nn12)Nc1ccccc1F | inconclusive: 22.4 µM [inhibitor, full curve] | – |
| O=C(CN1C(=O)C2CC=CCC2C1=O)Nc1ccc(Br)cc1 (centres undefined) | – | inactive: -18.2% |
| CC1CCC(Nc2nc3c(-c4cccc(C(F)(F)F)c4)nnn3c3ccccc23)CC1 (centres undefined) | – | inactive: -32.3% |
| CC(C)OC(=O)c1c(NC(=O)C2c3ccccc3Oc3ccccc32)sc2c1CCCC2 | – | inactive: -11% |
| CCOc1ccc(C2NC(=O)c3c(COC)cc(C)nc3N2Cc2ccccc2)cc1OC (centres undefined) | – | inactive: -12.9% |
| CN(CC(=O)Nc1ccc(Cl)cc1)C(=O)CNC(=O)c1ccc2ccccc2c1 | inconclusive: 35.5 µM [inhibitor, partial curve, poor fit] | – |
| CCCCOC(=O)CCCc1ccc([N+](=O)[O-])cc1[N+](=O)[O-] | inconclusive: 89.1 µM [inhibitor, partial curve, poor fit] | – |
| O=C(CN1C(=O)CCC1=O)Nc1ccc2c3c(cccc13)CC2 | inconclusive: 31.6 µM [inhibitor, partial curve, poor fit] | – |
| CCOc1ccc(OCC)c(NC(=O)C2CCN(c3nnc(-n4cccc4)s3)CC2)c1 | – | inactive: 1.97% |
| CC(=O)c1ccc(NC(=O)CCCSc2nc(-c3ccco3)cc(C(F)(F)F)n2)cc1 | – | inactive: -16.1% |
| CSCc1nc2sc(C(=O)Nc3nc(C)cs3)c(C)c2c(=O)[nH]1 | active: 31.6 µM | – |
| Cc1ccc2nc(-c3sc4nc(C)ccc4c3N)[nH]c2c1 | inconclusive: 31.6 µM [inhibitor, partial curve, poor fit] | – |
| Oc1ccc(NCc2ccccc2OCc2ccccc2F)cc1 | active: 50.1 µM | – |
| CCOC(=O)c1c(C)[nH]c(C)c1C(=O)COC(=O)c1ccc([N+](=O)[O-])s1 | active: 22.4 µM | – |
| CC(C)(C)N1C(=O)Cc2c1nc(N)c1c(N)nc(N3CCCCC3CO)c(C#N)c21 (centres undefined) | inconclusive: 20 µM [inhibitor, partial curve, poor fit] | – |
| O=C(O)c1ccccc1C(=O)c1ccc2oc(=O)[nH]c2c1 | active: 22.4 µM | – |
| N#C/C(=C\c1cccc(OC(=O)c2cccs2)c1)C(N)=O | inconclusive: 28.2 µM [inhibitor, partial curve, poor fit] | – |
| Cc1ccc(C)c(N(CC(=O)NCCSCc2ccco2)S(C)(=O)=O)c1 | active: 22.4 µM | – |
| Cc1cccc(NC(=O)c2ccc3ccccc3n2)n1 | inconclusive: 28.2 µM [inhibitor, partial curve, poor fit] | – |
